Data taken from PubChem BioAssay AID1347073 (National Center for Advancing Translational Sciences (NCATS), 2019).
The whole screen tested about 45,000 compounds, of which about 200 (0.44%) were called active. Another 7% or so got no clear call; they are omitted. Calls come from the whole dose curve; as a rule, active = well fitted activation curve with a large enough effect; inconclusive = small, poorly fitted or top-dose-only effect; inactive = no such curve, though single readings can be large or run the other way. This is one part of the list.

Experiment: qHTS of TDP-43 Inhibitors: NCGC Sytravon Library Screen; note: nearly all actives have a fitted effect of over 55% in size; for growth rescue (activation): 0% is about no effect
Details: yeast TDP-43 toxicity rescue, BacTiter-Glo growth, 24 h; series mostly up to 46.1 µM; growth rescue (activation): at the top concentration
How it was run: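 TDP-43-expressing yeast, pregrown in raffinose, seeded at OD600 0.02 in galactose medium with compound for 24 hr at 30 deg C. Growth read by BacTiter-Glo luminescence, so rescue of toxicity appears as activation.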
Potency is the fitted concentration of half-maximal effect.

Structure (SMILES)	growth rescue (activation)	Potency
COc1cc(CNc2ncnc3c2ncn3[C@H]2CN(Cc3ccccc3)C[C@@H](COC(C)=O)O2)cc(OC)c1OC	inactive: 1.44%	
O=C(COC(=O)CNC(=O)C1CCCCC1)Nc1ccc(Br)cc1Br	inactive: 22.7%	
Cc1ccc(C)c(Nc2c(F)c(F)c(F)c(F)c2C(=O)O)c1	inactive: 16.8%	
Cc1cccc(C)c1NC(=S)N(CCc1ccncc1)C(C)C	inactive: 4.75%	
O=C(c1cc(Br)ccc1Cl)N1CCCC1	inactive: -2.74%	
O=C(CN(Cc1ccco1)C(=O)CNS(=O)(=O)c1ccc(Cl)cc1)NCc1ccco1	inactive: 1.53%	
N#CCCn1cc(/C=N/NC(N)=S)c(-c2ccccc2)n1	inactive: 8.77%	
CCOC(=O)c1cc2c(C(F)(F)F)cc(-c3cccnc3)nc2o1	inactive: 4.53%	
c1ccc2c(Nc3ccc(N4CCOCC4)cc3)nc(N3CCOCC3)nc2c1	inactive: -23.9%	
Cc1cc(C)nc(NC(C)(C)C(=O)O)n1	inactive: -3.75%	
O=C(CN1C(=O)NC2(CCCC2)C1=O)NC(c1ccccc1)c1ccccc1	inactive: -11.9%	
COC(=O)C1=C(C)N(Cc2ccccc2)C(=O)/C1=C\c1ccco1	inactive: -29.9%	
O=C(NC1CCN(C(=O)Nc2ccc(F)cc2)CC1)c1ccc(F)cc1	inactive: -2.01%	
Cc1cc(=O)[nH]c(SCC(=O)Nc2ccc3c(c2)OCCO3)n1	inactive: 5.02%	
COc1ccc(/C=C2/Sc3ccc(C(=O)NCCCN4CCOCC4)cc3NC2=O)cc1OC	inactive: 5.13%	
CC1=Nc2nc(N3CCCCC3)c(C#N)c3c4c(nc(c23)N1)N(c1ccc(C(C)C)cc1)C(=O)C4	inactive: 9.46%	
CCOC(=O)c1ccc(NC(=O)c2ccc(NC(=O)C3CCCO3)cc2)cc1 (configuration not stated)	inactive: 17.7%	
COc1ccccc1NS(=O)(=O)c1ccc(O)c(C(=O)OCc2cccc([N+](=O)[O-])c2)c1	inactive: 15.6%	
CCC(C)C(NC(=O)C1CCC(=O)N1C(=O)OCc1ccccc1)C(=O)NC(Cc1ccccc1)C(N)=O (configuration not stated)	inactive: -15%	
CCOC(=O)CCNC(=O)Nc1cc2nc(C)n(Cc3cccc(Cl)c3)c2nc1C	inactive: -6.29%	
COc1cccc(NC(=O)CC2NCCNC2=O)c1 (configuration not stated)	inactive: -4.45%	
CC(O)C(NS(=O)(=O)c1ccc(Cl)cc1)C(=O)OCc1cc([N+](=O)[O-])cc2c1OCOC2 (configuration not stated)	inactive: -19.1%	
COc1ccccc1CNC(=O)Cc1c[nH]c2ccccc12	inactive: 2.49%	
NC(=O)c1nsc(C(=O)N(c2ccc(F)cc2)C(C(=O)NCC2CCCO2)c2ccc3ncccc3c2)c1N (configuration not stated)	inactive: 7.66%	
O=C(Cc1cccc2ccccc12)NN1C(=O)/C(=C\c2cccnc2)SC1=S	inactive: 20.5%	
COc1ccccc1NC(=O)Cc1nnc(SCC(=O)NC2CCCC2)n1C	inactive: -1.17%	

Structure (SMILES)	growth rescue (activation)	Potency
COc1ccccc1CCC(=O)NNC(=O)c1ccccc1	inactive: 2.78%	
Nn1c(SCC(=O)NC2CCS(=O)(=O)C2)nnc1-c1ccco1 (configuration not stated)	inactive: 8.16%	
Nc1nc2c(nc(N3CCCCC3)n2[C@@H]2O[C@H](CO)[C@@H](O)[C@H]2O)c(=O)[nH]1	inactive: 0.222%	
O=C(COC(=O)/C=C/c1ccccc1[N+](=O)[O-])NC(=O)NC1CCCC1	inactive: 37.8%	
Cc1nc(NCc2ccccn2)c2c3c(sc2n1)CCCC3	inactive: 18%	
CCn1nc(NC(=O)C(C)C)c2cc3ccc(C)cc3nc21	inactive: 9.62%	
O=C(Nc1ccc(S(=O)(=O)NCc2ccco2)cc1)c1cccc(F)c1	inactive: 7%	
S=C(NC1CCCC1)NN1CCOCC1	inactive: -3.02%	
O=C(Nc1ccc(F)c(Cl)c1)c1cccnc1	inactive: 5.26%	
Cc1ccc(NC(=O)CN(C)C(=O)CCOc2cccc(C)c2)cc1	inactive: 9.5%	
COc1ccc2cc(C3CC(c4ccco4)=NN3S(C)(=O)=O)c(Cl)nc2c1 (configuration not stated)	inactive: 5.84%	
Cc1ccc(NC(=O)c2cc(-c3ccccc3O)n[nH]2)cc1Cl	inactive: 14.6%	
COc1cccc(/C=C2/SC(=S)N(CC(=O)NNC(=O)c3ccccc3O)C2=O)c1	inactive: 15.3%	
CCCCNC(=O)C1(C)CCN1Cc1cccc2c(OC)cc(C(=O)OCC)cc12 (configuration not stated)	inactive: 21.4%	
CCOC(=O)c1c(C)[nH]c(C(=O)COC(=O)CCS(=O)(=O)c2ccc(C)cc2)c1C	inactive: 6.75%	
Cc1ccc(C(=O)Oc2cccc(-n3cnnn3)c2)cc1	inactive: 23.3%	
O=[N+]([O-])c1ccc2nc(-c3ccccc3)cc(-c3ccccc3)c2c1	inactive: 16.2%	
O=C(NCc1ccccc1F)c1ccncc1	inactive: -6.71%	
O=C(N/N=C/c1ccc2ncccc2c1)c1cccc([N+](=O)[O-])c1	inactive: 18.5%	
Cc1ccc(C)c(NCC(=O)NNC(=S)Nc2ccccc2)c1	inactive: 19.8%	
Cc1cccc(C(P(=O)(c2ccccc2)c2ccccc2)P(=O)(c2ccccc2)c2ccccc2)n1	inactive: -4.42%	
Cc1ccc(-n2ncc3c(SCc4cccc(C)c4)ncnc32)cc1	inactive: 17.2%	
C=C(C)CN=C1NN=C(c2cc(C)n(-c3ccc(C)cc3)c2C)CS1	inactive: 25%	
O=C(/C=C/c1ccc(S(=O)(=O)N2CCOCC2)cc1)NC(CO)C(O)c1ccc([N+](=O)[O-])cc1 (configuration not stated)	inactive: 17.9%	
O=C(O)CCCNC(=O)/C(=C\c1ccccc1F)NC(=O)c1ccccc1	inactive: -11.5%	
COc1cc(S(=O)(=O)n2cnc(C)c2)ccc1Br	inactive: 16.6%	

Structure (SMILES)	growth rescue (activation)	Potency
CC(C)N(C(=O)CSc1nnnn1-c1ccc2c(c1)OCO2)C(C)C	inactive: 1.12%	
COC(=O)c1[nH]c2ccc(Cl)cc2c1NC(=O)CN1CCc2cc(OC)c(OC)cc2C1	inactive: 11.2%	
CC(Sc1nncs1)C(=O)NCC(=O)Nc1ccc(F)c(F)c1F (configuration not stated)	inactive: 14.7%	
CCc1nnc(NC(=O)C2CCCN2C(=O)Nc2ccc(Cl)cc2)s1 (configuration not stated)	inactive: 8.23%	
COc1ccc(-n2c(COc3cccc(C)c3)nnc2SCC(=O)O)cc1	inactive: 22.8%	
CN(C)Cc1csc(NC(=O)Nc2ccccc2C(C)(C)C)n1	inactive: 2.4%	
CN(C)C(=O)c1cccc(-c2cnc3sc(NCc4ccc5c(c4)OCO5)nn23)c1	inactive: 6.22%	
O=C(NCc1ccc(F)cc1)c1cc(C2CCCN(C(=O)c3ccc4ccccc4c3)C2)on1 (configuration not stated)	inactive: 10.8%	
CCOc1ccc2nc(NCCNC(=S)NCCCN(C)C)c(C#N)cc2c1	inactive: 3.24%	
CCOP(=O)(OCC)C(NC(=O)Nc1ccc(Cl)cc1)c1ccccc1 (configuration not stated)	inactive: 5.54%	
COc1ccc(C(=O)NCC(=O)OCC(=O)NC2CCCC2)cc1	inactive: 12.8%	
O=C(COC(=O)[C@H](Cc1ccccc1)NC(=O)c1cccs1)NC1CCCCC1	inactive: -4.32%	
COc1ccc(CCC(=O)NNC(=O)c2ccc(OC)cc2)cc1	inactive: 11.1%	
CC(=O)Nc1ccc(NS(=O)(=O)c2ccc(OC(C)C(=O)N3CCOCC3)cc2)cc1 (configuration not stated)	inactive: 11.3%	
CCN(CC)CCN(Cc1cc2cc3c(cc2[nH]c1=O)OCCO3)C(=S)NCC1CCCO1 (configuration not stated)	inactive: 2.57%	
O=C(O/N=C(\c1ccccc1)c1ccccn1)c1cccc2ccccc12	inactive: 22.1%	
CC(=O)Nc1cccc(-c2ccnc3c2CC(C(=O)Nc2cccc(N(C)C)c2)O3)c1 (configuration not stated)	inactive: -2.52%	
Cc1ccc(N(C(=O)CCC(=O)Nc2nccs2)C(C(=O)NC(C)(C)C)c2ccc(O)cc2)cc1 (configuration not stated)	inactive: 4.42%	
O=C(Nc1cccc(S(=O)(=O)N2CCCCCC2)c1)c1ccc(Cl)nc1	inactive: -12.1%	
NC(=O)c1ccc(NC(=O)c2ccccc2S(=O)(=O)c2ccccc2[N+](=O)[O-])cc1	inactive: 5.02%	
O=C(O)c1c2c(nc3ccc(S(=O)(=O)N4CCC(C(=O)NCc5ccc(Cl)cc5)CC4)cc13)CCCC2	inactive: -4.18%	
O=C(COC(=O)COc1ccccc1)Nc1ccc(Br)cc1F	inactive: -15.1%	
CCCCCOc1ccc(NC(=O)Cn2c(-c3cncs3)nc3ccccc32)cc1	inactive: 18.1%	
CC1CN(C(=O)N2c3ccccc3Sc3ccccc32)CC(C)O1 (configuration not stated)		active: 12.6 µM
Cc1cc(C)n(CCC(=O)N/N=C/c2ccc(Br)c([N+](=O)[O-])c2)n1	inactive: 21.4%	
COC(=O)[C@H](Cc1ccccc1)NC(=O)Nc1ccc(OC)cc1	inactive: -3.46%	

Structure (SMILES)	growth rescue (activation)	Potency
CCC(/C=C1\Oc2ccc(OC)cc2N1C)=C\c1sc2ccccc2[n+]1CCCS(=O)(=O)[O-]	inactive: -7.22%	
CC(C)CNC(=O)NC(=O)COC(=O)C1CSC2(c3ccc(F)cc3)CCC(=O)N12 (configuration not stated)	inactive: -9.24%	
CN(c1cccc(NC(=O)CN(c2cccc(Cl)c2)S(=O)(=O)c2ccccc2)c1)S(C)(=O)=O	inactive: 20.7%	
Cc1cccc(N2C(=O)CC(N3CCN(Cc4ccc5c(c4)OCO5)CC3)C2=O)c1 (configuration not stated)	inactive: -4.29%	
Cc1sc(-c2c(C#N)c(N)nc3c2CCCCCC3)cc1[N+](=O)[O-]	inactive: 23.1%	
CCc1ccc(NC(=O)COC(=O)/C(=C/c2ccccc2OC)c2ccccc2)cc1	inactive: 23.2%	
CCSc1nnc(NC(=O)C2C3CCC(C3)C2C(=O)O)s1 (configuration not stated)	inactive: 3.13%	
O=c1c2ccccc2n2cnnc2n1-c1ccccc1	inactive: 3.22%	
CC(=O)N(c1ccc2oc(=O)sc2c1)S(=O)(=O)c1ccc(C)cc1	inactive: 14.2%	
S=C(NCc1ccccc1)N1CCN(c2ccccc2)CC1	inactive: 15.5%	
COc1ccc(OC)c(C(=O)C2COC(=O)C2)c1 (configuration not stated)	inactive: 30.6%	
CCC(CC)C(=O)Nc1cc(C(=O)OC)ccc1C(=O)OC	inactive: 5.02%	
O=C(COC(=O)c1ccc(NS(=O)(=O)c2cccs2)cc1O)Nc1ccc(F)cc1	inactive: 30.3%	
OC(c1ccccc1)c1ncc(-c2cccc(OCc3ccccc3)c2)[nH]1 (configuration not stated)	inactive: 16%	
CN(C(=O)CN1CCN(c2cc(-c3ccc(OCc4ccccc4)cc3)ncn2)CC1)c1ccccc1	inactive: 6.8%	
COc1cccc(-c2nc(N3CCN(C)CC3)c3ccccc3n2)c1O	inactive: -2.42%	
COc1ccc(C(=O)CCC(=O)Nc2cccnc2)cc1OC	inactive: 14.8%	
Cc1ccccc1C(C(=O)NC1CCCCC1)N(C(=O)CNC(=O)c1ccco1)c1cccnc1 (configuration not stated)	inactive: -10.1%	
Cc1c(C(=O)O)sc2nc(/C=C/c3ccccc3OC(F)F)[nH]c(=O)c12	inactive: 4.22%	
CCOc1ccc(CN(CC)C(=O)Cc2c[nH]c3ccccc23)cc1OC	inactive: -4.99%	
COCCN(Cc1ccc(OC)cc1)c1c(C)nc2ccc(C(=O)NCCc3c[nH]c4ccccc34)cn12	inactive: 13.4%	
Cc1nn(C)cc1CN(C)C(=O)c1nn2c(c1Br)NC(c1cccs1)CC2C(F)(F)F (configuration not stated)	inactive: 7.88%	
O=C(Cc1ccc(Cl)cc1)NCC(=O)N1CCN(c2ccccc2)CC1	inactive: 12.1%	
Cc1nn(CC(=O)Nc2ccc(N3CCOCC3)cc2)c(C)c1Cl	inactive: 13.8%	
